Source: PubChem BioAssay AID504333 (National Center for Advancing Translational Sciences (NCATS), 2011)
The campaign covered roughly 360,000 compounds. About 16,000 (4.4%) were called active. Inconclusive means that the source gave no clear call. Such entries were picked first, then a sample of the others. The call rests on the fitted dose curve; in most records, active means well fitted inhibition curve with a large enough effect; inconclusive means small, poorly fitted or top-dose-only effect; inactive means no such curve, though single readings can be large or run the other way. Where the call is inconclusive, the potency comes from a doubtful curve fit.

What follows are compounds tested against Bromodomain adjacent to zinc finger domain protein 2B (Homo sapiens) (UniProt Q9UIF8) (assay: qHTS Assay for Inhibitors of BAZ2B). Conditions: AlphaScreen BAZ2B-H3K14Ac peptide displacement; activity change, negative = inhibition: at 114 µM (top of the series).
Sequence of UniProt Q9UIF8 (Q9UIF8 whole entry, looked up, the tested form may be a part): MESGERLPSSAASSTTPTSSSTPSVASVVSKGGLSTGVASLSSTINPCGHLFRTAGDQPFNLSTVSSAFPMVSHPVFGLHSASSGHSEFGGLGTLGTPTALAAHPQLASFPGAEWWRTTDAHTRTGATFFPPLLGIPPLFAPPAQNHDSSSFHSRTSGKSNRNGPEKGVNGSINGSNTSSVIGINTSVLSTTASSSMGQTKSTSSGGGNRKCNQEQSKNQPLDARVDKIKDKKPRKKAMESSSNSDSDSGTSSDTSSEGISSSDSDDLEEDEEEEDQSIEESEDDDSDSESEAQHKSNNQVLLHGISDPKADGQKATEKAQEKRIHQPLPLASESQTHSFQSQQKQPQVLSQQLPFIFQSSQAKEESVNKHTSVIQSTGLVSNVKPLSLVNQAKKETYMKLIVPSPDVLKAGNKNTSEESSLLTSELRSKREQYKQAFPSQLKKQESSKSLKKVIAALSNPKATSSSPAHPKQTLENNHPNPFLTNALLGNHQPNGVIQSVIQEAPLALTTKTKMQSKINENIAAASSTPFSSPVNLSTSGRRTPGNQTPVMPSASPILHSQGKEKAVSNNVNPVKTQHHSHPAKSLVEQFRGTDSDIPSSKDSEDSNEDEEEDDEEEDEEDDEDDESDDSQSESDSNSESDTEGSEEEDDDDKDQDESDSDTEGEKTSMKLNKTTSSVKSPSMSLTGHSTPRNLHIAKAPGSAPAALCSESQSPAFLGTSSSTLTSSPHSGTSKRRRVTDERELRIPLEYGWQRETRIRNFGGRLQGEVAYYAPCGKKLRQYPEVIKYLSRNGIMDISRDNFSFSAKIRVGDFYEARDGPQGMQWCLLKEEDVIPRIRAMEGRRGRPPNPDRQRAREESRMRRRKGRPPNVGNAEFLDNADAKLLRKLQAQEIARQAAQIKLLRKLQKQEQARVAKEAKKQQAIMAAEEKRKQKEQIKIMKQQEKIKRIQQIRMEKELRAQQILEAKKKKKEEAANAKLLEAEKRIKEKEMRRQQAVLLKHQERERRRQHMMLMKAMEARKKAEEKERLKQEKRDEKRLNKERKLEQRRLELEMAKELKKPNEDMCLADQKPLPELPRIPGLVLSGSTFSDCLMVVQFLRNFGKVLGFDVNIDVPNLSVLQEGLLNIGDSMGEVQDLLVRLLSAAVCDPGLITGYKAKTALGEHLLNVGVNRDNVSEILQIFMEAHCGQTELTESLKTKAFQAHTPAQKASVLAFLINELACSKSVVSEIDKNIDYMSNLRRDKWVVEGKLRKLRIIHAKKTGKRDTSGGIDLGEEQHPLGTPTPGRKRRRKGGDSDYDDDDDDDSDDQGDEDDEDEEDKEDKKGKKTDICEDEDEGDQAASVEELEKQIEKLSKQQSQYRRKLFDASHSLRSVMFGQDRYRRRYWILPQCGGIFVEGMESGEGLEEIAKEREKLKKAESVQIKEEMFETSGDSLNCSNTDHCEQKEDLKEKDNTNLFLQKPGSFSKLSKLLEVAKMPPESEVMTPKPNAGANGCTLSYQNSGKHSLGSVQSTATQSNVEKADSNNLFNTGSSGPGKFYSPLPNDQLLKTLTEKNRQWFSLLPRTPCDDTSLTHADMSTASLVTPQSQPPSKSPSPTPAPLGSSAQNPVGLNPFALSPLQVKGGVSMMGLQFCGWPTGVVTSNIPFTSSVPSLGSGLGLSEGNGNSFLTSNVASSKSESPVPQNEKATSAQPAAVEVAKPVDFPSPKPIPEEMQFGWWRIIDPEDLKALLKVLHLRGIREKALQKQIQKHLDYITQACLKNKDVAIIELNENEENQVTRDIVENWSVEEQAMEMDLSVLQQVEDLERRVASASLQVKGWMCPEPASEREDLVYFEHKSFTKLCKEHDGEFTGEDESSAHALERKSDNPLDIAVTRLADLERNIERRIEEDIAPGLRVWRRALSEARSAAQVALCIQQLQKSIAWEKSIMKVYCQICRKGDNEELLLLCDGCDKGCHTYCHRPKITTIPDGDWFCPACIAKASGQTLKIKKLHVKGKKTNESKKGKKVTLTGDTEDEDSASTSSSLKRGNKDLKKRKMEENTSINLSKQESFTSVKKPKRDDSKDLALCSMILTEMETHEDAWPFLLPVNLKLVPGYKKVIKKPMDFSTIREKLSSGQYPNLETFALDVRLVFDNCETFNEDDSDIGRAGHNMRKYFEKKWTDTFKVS
In short: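 Complex of BAZ2B and biotin-H3K14Ac (50 nM apiece) forms over 30 min at RT, then faces library compounds up to 110 uM for another 30 min; AlphaScreen beads added, 20 min dark incubation, luminescence read.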
Further: nearly all actives have a fitted effect of over 60% in size.
On the % scale 0 is the no-effect control and ±100 the full control effect; potency means the concentration at half of the fitted maximal effect; tags describe the fitted curve by direction and shape.

Row | Structure (SMILES) | Potency | activity change, negative = inhibition
1 | COc1ccccc1NC(=O)C1=C(C)Nc2nc(SCc3ccccc3)nn2C1c1cccnc1 (configuration not stated) | active: 79.4 µM | –
2 | O=C(Nc1ccccc1)C1CCN(S(=O)(=O)c2ccc3[nH]c4c(c3c2)CCCCC4)CC1 | inconclusive: 79.4 µM [inhibitor, partial curve] | –
3 | Cc1ccc(-c2csc(NC(=O)CSc3nc4ccccc4c(=O)n3CCCN(C)C)n2)cc1 | inconclusive: 39.8 µM [inhibitor, full curve, poor fit] | –
4 | CCN(CC)C(=O)c1csc(Nc2cccc3ccccc23)n1 | inconclusive: 70.8 µM [inhibitor, single point] | –
5 | CC1Cc2ccccc2N1Cc1cc(=O)c(OCC(=O)Nc2ccccc2)co1 (configuration not stated) | – | inactive: -38.8%
6 | CC1CCN(c2oc(/C=C/c3ccc(F)cc3)nc2C#N)CC1 | inconclusive: 8.91 µM [inhibitor, full curve] | –
7 | CC(C)c1ccc(OCC(=O)NC2=NCCS2)cc1 | inconclusive: 0.891 µM [inhibitor, full curve, poor fit] | –
8 | COc1ccc(NC(=O)Cn2nc(C)c3nn(-c4ccc(Cl)cc4)c(C)c3c2=O)cc1 | – | inactive: 2.34%
9 | CC1CCC2CCCCC2N1C(=O)c1cc([N+](=O)[O-])cc([N+](=O)[O-])c1 (configuration not stated) | active: 50.1 µM | –
10 | COc1ccc(CN(CCN2CCOCC2)C(=O)c2c(F)cccc2F)cc1OC | inconclusive: 89.1 µM [inhibitor, single point] | –
11 | COc1ccccc1-n1c(-c2ccc(Cl)cc2)c[nH]c1=S | inconclusive: 44.7 µM [inhibitor, partial curve] | –
12 | O=C(NCc1ccccc1)c1ncn(Cc2ccccc2)c1C(=O)NCc1ccccc1 | – | inactive: 12.8%
13 | S=c1[nH]nc(-c2ccccn2)n1/N=C/c1cccc(Cl)c1 | active: 28.2 µM | –
14 | N/C(=N\N=C\c1ccco1)SC1CC(=O)N(c2ccc(C(=O)O)cc2)C1=O (configuration not stated) | inconclusive: 70.8 µM [inhibitor, single point] | –
15 | CC(C)Cn1c(-c2cc([N+](=O)[O-])ccc2Cl)nc2c1c(=O)[nH]c(=O)n2Cc1ccccc1 | inconclusive: 70.8 µM [inhibitor, single point] | –
16 | CN(C)CCCOC(=O)c1ccc(Br)cc1 | – | inactive: 9.87%
17 | CCOc1ccc(-c2cc(NC(=O)c3c(F)cccc3F)c(C(=O)O)s2)cc1 | inconclusive: 89.1 µM [inhibitor, single point] | –
18 | Cc1noc(C)c1CSCC(=O)Nc1nc(-c2ccc(F)c(F)c2)cs1 | – | inactive: -27.5%
19 | Cc1ccc(Sc2ccc(S(=O)(=O)Nc3ccc(CC(=O)O)cc3)cc2)cc1C | inconclusive: 89.1 µM [inhibitor, single point] | –

Row | Structure (SMILES) | Potency | activity change, negative = inhibition
20 | O=C(O)CCC(=O)Nc1ccc2c(c1)Cc1cc(NC(=O)CCC(=O)O)ccc1-2 | inconclusive: 89.1 µM [inhibitor, single point] | –
21 | Cc1cc2cc3c(cc2nc1SCC(=O)N1CCN(C(=O)c2ccco2)CC1)OCO3 | – | inactive: -34.4%
22 | COc1ccc(-c2noc(CNS(=O)(=O)c3ccc(Br)cc3)n2)cc1OC | – | inactive: -19.8%
23 | N#C/C(=C\c1ccc(Sc2ccccc2)o1)c1nc2ccccc2[nH]1 | inconclusive: 79.4 µM [inhibitor, single point] | –
24 | Cc1ccc(-c2nc3cccnc3o2)cc1NC(=O)COc1ccc(C(C)(C)C)cc1 | – | inactive: -24.3%
25 | C=CCOc1cccc(C2/C(=C(\O)c3ccc4c(c3)OCCO4)C(=O)C(=O)N2Cc2cccnc2)c1 (configuration not stated) | active: 50.1 µM | –
26 | COC(=O)c1ccc(OC)c(CN2C(=O)N(c3ccc(C(C)=O)cc3)S(=O)(=O)c3ccccc32)c1 | – | inactive: 0.144%
27 | COc1ccc(-c2cc3ncc(-c4ccccc4)c(N)n3n2)cc1 | inconclusive: 89.1 µM [inhibitor, single point] | –
28 | CCN(CC)CCSc1nnc2c3cc(F)ccc3n(C)c2n1 | inconclusive: 44.7 µM [inhibitor, partial curve] | –
29 | CC(=O)Nc1ccc(SCC(=O)c2ccc(Br)s2)cc1 | active: 50.1 µM | –
30 | CN(C)c1ncnc2c1NC1=C(S2)C(=NCCCC(=O)O)CC(C)(C)C1 | inconclusive: 89.1 µM [inhibitor, single point] | –
31 | CC(=O)Nc1ccc(OCc2cccc3ccccc23)cc1 | inconclusive: 3.55 µM [inhibitor, full curve, poor fit] | –
32 | CC(=O)N1C[C@H](O)C[C@H]1C(=O)O | – | inactive: 7.91%
33 | O=C(NNC(=S)Nc1ccc(Cl)c(Cl)c1)c1cccc([N+](=O)[O-])c1 | inconclusive: 50.1 µM [inhibitor, partial curve] | –
34 | COc1ccc(/C=N/N2CCN(c3ccccc3OC)CC2)cc1OC | inconclusive: 44.7 µM [inhibitor, partial curve] | –
35 | CCOc1ccc(-c2nc(CSCC(=O)NCc3ccco3)c(C)o2)cc1 | inconclusive: 79.4 µM [inhibitor, partial curve] | –
36 | COc1ccc(/C=C/C(=O)c2ccc3ccccc3c2O)cc1CN1CCOCC1 | active: 14.1 µM | –
37 | Cc1nonc1C(=O)N/N=C/c1ccccc1 | – | inactive: 3.78%
